# Data: PubChem BioAssay AID588453 (National Center for Advancing Translational Sciences (NCATS), 2011)
# In all, about 390,000 compounds went through this assay and about 4,000 (1%) were called active. Inconclusive results, whose numbers are uncertain, are shown with a selection of clear calls. Calls follow the shape of the dose curve; as a rule, active = well fitted inhibition curve with a large enough effect; inconclusive = small, poorly fitted or top-dose-only effect; inactive = no such curve, though single readings can be large or run the other way. A potency beside an inconclusive call is a rough fit, not a confirmed value.
# Target: Thioredoxin reductase 1, cytoplasmic (Rattus norvegicus) (UniProt O89049)
# UniProt O89049, sequence (O89049 whole entry, looked up): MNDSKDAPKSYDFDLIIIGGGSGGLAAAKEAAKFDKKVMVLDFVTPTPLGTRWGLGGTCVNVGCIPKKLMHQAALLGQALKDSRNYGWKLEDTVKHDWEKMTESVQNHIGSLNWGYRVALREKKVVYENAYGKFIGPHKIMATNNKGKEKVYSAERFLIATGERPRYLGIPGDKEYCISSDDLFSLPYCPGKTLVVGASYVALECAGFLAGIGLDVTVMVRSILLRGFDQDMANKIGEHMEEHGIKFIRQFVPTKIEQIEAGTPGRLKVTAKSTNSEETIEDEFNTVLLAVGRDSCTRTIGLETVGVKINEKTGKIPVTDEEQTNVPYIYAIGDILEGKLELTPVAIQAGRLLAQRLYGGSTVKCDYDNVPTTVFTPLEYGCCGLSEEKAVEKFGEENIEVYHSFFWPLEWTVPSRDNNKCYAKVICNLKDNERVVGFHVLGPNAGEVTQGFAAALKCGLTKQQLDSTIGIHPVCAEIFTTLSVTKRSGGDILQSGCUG
# Assay: qHTS Assay for Inhibitors of Mammalian Selenoprotein Thioredoxin Reductase 1 (TrxR1): qHTS; also: nearly all actives have a fitted effect of over 65% in size
# Conditions: recombinant rTrxR1, NADPH fluorescence consumption, selenite substrate; series mostly up to 114 µM; activity change, negative = inhibition: at the top concentration
# Summary of the method: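 Rat TrxR1 (90 nM in the dispensed reagent) was pre-reduced with 400 uM NADPH for 5 min at room temperature, then incubated with compound for 15 min. After 400 uM selenite was added, NADPH fluorescence (Ex 340/Em 450 nm) was followed for 8 min.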
# % is scaled to controls: 0 for no effect and ±100 for the full control effect; potency is read from the fitted curve at half-maximal effect; tags tell the direction and shape of the fitted curve.
Structure (SMILES),Potency,"activity change, negative = inhibition"
COC(=O)C1=C(O)/C(=C\c2cc(C)n(-c3ccccc3F)c2C)N=C1C,active: 15.8 µM,–
O=S(=O)(c1ccc(N2CC=C(c3ccccc3)CC2)nc1)N1CCCC1,"inconclusive: 25.1 µM [inhibitor, single point]",–
c1ccc2sc(Sc3ncnc4sccc34)nc2c1,"inconclusive: 56.2 µM [inhibitor, single point]",–
CCOc1ccc(CN(CCc2ccc3c(c2)OCO3)Cc2cc(OC)c(OC)cc2OC)cc1,"inconclusive: 89.1 µM [inhibitor, partial curve, poor fit]",–
CC1CCC2(CC1)NC(=O)N(CC(=O)Nc1cccc(S(=O)(=O)N3CCOCC3)c1)C2=O (centres undefined),–,inactive: 13.2%
C/C(N)=C(/C#N)C(=O)CSc1nnc(Nc2c(C)cccc2C)s1,"inconclusive: 25.1 µM [inhibitor, partial curve, poor fit]",–
COc1ccc(NC(=O)CN2CCN(S(=O)(=O)c3ccc(Cl)cc3)CC2)cc1,"inconclusive: 31.6 µM [inhibitor, partial curve, poor fit]",–
O=C(Nc1cccc(C(F)(F)F)c1)/C(=C/c1ccco1)NC(=O)c1cccs1,"inconclusive: 39.8 µM [inhibitor, partial curve]",–
CCOC(=O)N1CCN(c2nc(SC)nc3sc4c(c23)CC(C)(C)OC4)CC1,–,inactive: -7.64%
O=C(NC(=S)NCc1ccccc1)c1ccc2c(c1)OCO2,"inconclusive: 17.8 µM [inhibitor, full curve, poor fit]",–
CCCC(=O)Nc1ccc(C(=O)N/N=C/c2ccc([N+](=O)[O-])o2)cc1,"inconclusive: 50.1 µM [inhibitor, partial curve]",–
CC(NC(=O)OC(C)(C)C)C(=O)Oc1cc2oc(=O)cc(-c3ccccc3)c2cc1Cl (centres undefined),"inconclusive: 15.8 µM [inhibitor, full curve, poor fit]",–
O=C(/C(=C/c1ccc(Cl)cc1)c1nc2ccccc2[nH]1)c1cccs1,"inconclusive: 89.1 µM [inhibitor, single point]",–
COc1ccc(NC(=S)NNc2ccc(S(=O)(=O)Nc3ccccc3C(=O)O)cc2[N+](=O)[O-])cc1,"inconclusive: 44.7 µM [inhibitor, partial curve]",–
N=C1C(c2nc3ccccc3s2)=C(O)CN1NC(=O)c1ccc([N+](=O)[O-])cc1,"inconclusive: 14.1 µM [inhibitor, partial curve]",–
CCOC(=O)c1oc2ccc(S(=O)(=O)n3nc(-c4ccc(Cl)cc4)cc3N)cc2c1C,–,inactive: -7%
CCSc1nc(-c2ccccc2F)nc2c1Cc1c(CO)cnc(C)c1O2,"inconclusive: 50.1 µM [inhibitor, partial curve]",–

Structure (SMILES),Potency,"activity change, negative = inhibition"
COC(=O)c1ccccc1NC(=S)NC(=O)CC(C)C,"inconclusive: 25.1 µM [inhibitor, full curve]",–
COc1cc2c(cc1OC)C(c1cc3ccc(C)cc3[nH]c1=O)N(C(=O)c1ccco1)CC2 (centres undefined),"inconclusive: 14.1 µM [inhibitor, partial curve]",–
CCC(C(=O)Nc1cc(F)ccc1F)n1nc(C)c2c(C)n(-c3ccc(C)cc3)nc2c1=O (centres undefined),inactive,–
CC(=O)N1CCC(=NNc2ccc(S(=O)(=O)N3CCOCC3)cc2[N+](=O)[O-])CC1,"inconclusive: 79.4 µM [inhibitor, partial curve]",–
COc1ccc2oc(=O)c(C(=O)n3ccc(C)n3)cc2c1,"inconclusive: 39.8 µM [inhibitor, partial curve]",–
COc1cccc(NC(=O)CN(C)CC(=O)NCc2ccc(F)cc2)c1,–,inactive: 6.6% [at 2.29 µM]
CCOc1ccc(N(Cc2ccccc2)C(=O)c2nc(S(C)(=O)=O)ncc2Cl)cc1,active: 2.24 µM,–
COc1cccc(NC(=S)NCc2cccnc2)c1,"inconclusive: 39.8 µM [inhibitor, single point]",–
CC(=O)c1ccc(N2C(=O)C3C(C2=O)C(C(=O)c2ccc(Cl)cc2)N2CCCC32)cc1 (centres undefined),"inconclusive: 11.2 µM [inhibitor, single point]",–
CC1(C)c2ssc(=S)c2-c2ccccc2N1C(=O)c1ccco1,"inconclusive: 89.1 µM [inhibitor, partial curve, poor fit]",–
CCOC(=O)c1oc2cc(OC(C)=O)ccc2c(=O)c1-c1ccc(OC)c(OC)c1,–,inactive: -5.32%
O=[N+]([O-])c1ccc(NC(=S)NCCc2ccc(Cl)cc2)cc1,"inconclusive: 25.1 µM [inhibitor, full curve]",–
CN(CCO)c1cc(N2CCCCC2)c2nonc2c1[N+](=O)[O-],active: 44.7 µM,–
Cc1c(CC(=O)NCc2ccc(F)cc2)c(=O)oc2cc(O)c(Cl)cc12,active: 79.4 µM,–
Clc1ccccc1Cn1c(/C=C/c2ccco2)nc2ccccc21,active: 50.1 µM,–
Cc1ccc(C(C)C)c(OCC(O)CN2CCN(CCO)CC2)c1 (centres undefined),"inconclusive: 39.8 µM [inhibitor, single point]",–
CCOC(=O)c1cc(C#N)c(N2CCCNCC2)nc1C(F)(F)F,"inconclusive: 89.1 µM [inhibitor, single point]",–
